From paper PMC4336329 (PLoS ONE, 2015) come the findings set out here.

The campaign covered roughly 310,000 compounds. About 14,000 (4.5%) showed an effect of 50% or more. Effects have a minus sign here. Some of the results follow. Where a SMILES comes first, the peptide text is derived from it. [ ]: non-standard residue; d: D form. The star is where a group is joined. Cbz = O=C(OCc1ccccc1)*
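Also: peak tail current of the secondary pulse compared with the same well before compound.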

human ether-à-go-go-related gene (hERG) potassium channel, sequence (Q12809 whole entry, looked up): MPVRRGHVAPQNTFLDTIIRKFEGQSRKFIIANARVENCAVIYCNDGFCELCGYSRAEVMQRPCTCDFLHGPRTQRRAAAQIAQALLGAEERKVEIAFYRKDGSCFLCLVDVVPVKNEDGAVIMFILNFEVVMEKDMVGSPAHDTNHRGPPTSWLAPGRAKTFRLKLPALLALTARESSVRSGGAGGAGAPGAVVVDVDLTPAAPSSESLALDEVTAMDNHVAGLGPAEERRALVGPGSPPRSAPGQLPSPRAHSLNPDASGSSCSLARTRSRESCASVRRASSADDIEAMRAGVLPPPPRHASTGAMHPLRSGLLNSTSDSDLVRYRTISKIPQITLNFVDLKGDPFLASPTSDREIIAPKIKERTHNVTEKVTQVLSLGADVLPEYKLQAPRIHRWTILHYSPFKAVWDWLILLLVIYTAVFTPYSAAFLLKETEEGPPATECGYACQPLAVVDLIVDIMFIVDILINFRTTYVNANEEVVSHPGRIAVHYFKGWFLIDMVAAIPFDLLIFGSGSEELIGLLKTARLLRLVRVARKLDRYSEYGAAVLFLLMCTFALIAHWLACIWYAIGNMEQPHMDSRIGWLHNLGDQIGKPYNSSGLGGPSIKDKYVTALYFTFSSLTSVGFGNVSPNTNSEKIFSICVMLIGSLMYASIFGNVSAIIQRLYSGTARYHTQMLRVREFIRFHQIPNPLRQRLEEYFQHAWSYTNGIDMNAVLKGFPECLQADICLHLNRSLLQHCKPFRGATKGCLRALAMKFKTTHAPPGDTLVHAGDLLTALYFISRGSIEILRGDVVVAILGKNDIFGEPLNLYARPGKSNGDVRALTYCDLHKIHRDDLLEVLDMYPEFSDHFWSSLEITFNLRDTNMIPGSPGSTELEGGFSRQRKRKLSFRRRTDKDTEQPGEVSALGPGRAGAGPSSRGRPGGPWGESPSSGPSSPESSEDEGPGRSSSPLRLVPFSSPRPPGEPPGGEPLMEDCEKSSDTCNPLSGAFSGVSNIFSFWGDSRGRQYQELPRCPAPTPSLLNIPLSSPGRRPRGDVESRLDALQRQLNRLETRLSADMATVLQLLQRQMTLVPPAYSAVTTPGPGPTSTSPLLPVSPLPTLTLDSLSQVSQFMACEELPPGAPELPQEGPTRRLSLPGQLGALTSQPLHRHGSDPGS

This assay addresses human ether-à-go-go-related gene (hERG) potassium channel (human, UniProt Q12809). Nature of the assay: primary screen, population patch clamp on CHO cells stably expressing hERG.
For the compound `Cc1c(C(=O)Oc2ccc(Cl)cc2)n(C)oc1=O`, the “hERG current change (%, negative = inhibition) at 10uM” value came out at 9.43%.
As for `O=C(Nc1cccc(NC(=O)c2sc3ccccc3c2Cl)c1)c1ccco1`, the “hERG current change (%, negative = inhibition) at 10uM” value was -2.53%.
The result for `CCSc1nc2cc(OC)c(OC)cc2c(=O)n1CCc1ccccc1` reads -3.87%; that for `O=C(COc1ccccc1)NCC(c1ccco1)N1CCN(c2ccc(F)cc2)CC1` (stereo not drawn), -41%.
As for `O=C(Cn1cc2c(n1)CCCCC2)Nc1ccccc1Br`, the “hERG current change (%, negative = inhibition) at 10uM” value is reported as -26.4%.
The figure for `NS(=O)(=O)c1ccc(NC(=S)NC2CC2)cc1` is 15.6%; for `CCCCNC(=O)C1CCCN(S(=O)(=O)c2ccc(S(=O)(=O)NCC(C)C)cc2)C1` (stereo not drawn) it is -6.95%.
The result for `CCC(C)COC(=O)C(C#N)c1nc2ccccc2nc1N1CCCCC1` (stereo not drawn) reads -1.25%.
The figure for `CC(=O)Nc1ccc(S(=O)(=O)N2CCC(NC(=O)c3ccco3)CC2)cc1` is 8.46%; for `N/C(=N\OC(=O)Cc1ccc(-c2ccccc2)cc1)c1ccccn1` it is 19.6%; for `Cc1cc(C(F)F)nn1CC(=O)Nc1cc([N+](=O)[O-])ccc1F` it is -29.5%.
`O=S(=O)(Nc1ccccc1)c1ccc(NS(=O)(=O)c2c(F)cccc2F)cc1`: the “hERG current change (%, negative = inhibition) at 10uM” value came out at 4.43%.
For `O=C(C(NS(=O)(=O)c1cccs1)c1ccccc1)N1CCN(c2ccccc2F)CC1` (stereo not drawn), the “hERG current change (%, negative = inhibition) at 10uM” value is recorded as -7.86%.
Take `Cc1[nH]nc(N=CC2=C(O)CC(C)(C)CC2=O)c1-c1ccccc1`: the “hERG current change (%, negative = inhibition) at 10uM” value stood at 0.302%.
Turning to `N#Cc1ccc(CN2CCN(C(=O)c3cccc(S(=O)(=O)N4CCCCCC4)c3)CC2)cc1`, the “hERG current change (%, negative = inhibition) at 10uM” value is -75.8%.
As to `CN(Cc1nccs1)C(=O)CC1C(=O)NCCN1Cc1ccc(-c2ccccc2)cc1` (stereo not drawn), the “hERG current change (%, negative = inhibition) at 10uM” value is -8.54%.
The figure for `CCN(CC)S(=O)(=O)c1cc(-c2nn(C)c(=O)c3ccccc23)ccc1C` is -53.5%; for `CCOC(=O)CSc1nnc(-c2c[nH]c3ccccc23)n1CC` it is -10.3%.
The figure for `COc1ccc(NC(=O)N2CCN(CCC#N)CC2)cc1` is 11.2%.
With `S=C(Nc1ccccc1Cl)Nc1ccc(Cl)cc1Cl`, the “hERG current change (%, negative = inhibition) at 10uM” value is given as 13.9%.
The figure for `O=C(COc1ccccc1)N1CCN=C1SCc1cccnc1` is 21.2%; for `COc1cccc(C(C[N+](=O)[O-])c2c(C)[nH]n(-c3ccccc3)c2=O)c1` (stereo not drawn) it is 15.5%; for `COc1ccccc1N1CCN(C(=O)C(=O)N/N=C/c2cccc(O)c2)CC1` it is -3.36%.
For the compound `CCC(Oc1ccccc1)C(=O)Nc1ccccn1` (stereo not drawn), the “hERG current change (%, negative = inhibition) at 10uM” value came out at 8.82%.
As for `CCCNC(=O)Nc1ccc(F)c(Cl)c1`, the “hERG current change (%, negative = inhibition) at 10uM” value is 15.6%.
On to `CCCC1=C(C(=O)OCC)C(c2ccc(NC(C)=O)cc2)NC(=O)N1` (stereo not drawn), for which the “hERG current change (%, negative = inhibition) at 10uM” value is recorded as 0.994%.
The result for `Cc1cccc(CCNC(=O)COc2cc(=O)n(C)c3ccccc23)c1` reads -17.6%; that for `COc1ccc(Cn2c(C)c(C)c(C#N)c2NC(=O)Nc2cccc(Cl)c2)cc1`, 15.4%; that for `COc1ccc(N2CCN(C(=O)COC(=O)c3ccc(OC(F)F)cc3)CC2)cc1`, -26.5%.
Consider `CC(=O)Nc1ccccc1-c1nc2ccc(C(=O)N3CCN(c4cc(C)ccc4C)CC3)cc2[nH]c1=O`, for which the “hERG current change (%, negative = inhibition) at 10uM” value is given as -23.5%.
The result for `CC1C(=O)Nc2ccc(S(=O)(=O)N3CCN(c4ccccc4F)CC3)cc2NC1=O` (stereo not drawn) reads -20.9%; that for `O=C(Nc1ccccc1)c1ccc(S(=O)(=O)N2CCC(C(=O)O)CC2)cc1`, 13.3%; that for `COc1ccc(-n2cnnc2SCc2cnc(-c3ccccc3)s2)cc1`, -18.3%.
Consider `Cc1ccc(C2C(C(=O)c3ccco3)=C(O)C(=O)N2c2ncccn2)cc1` (stereo not drawn), for which the “hERG current change (%, negative = inhibition) at 10uM” value is 9.22%.
The result for `COC(=O)c1ccc(COc2ccc(C=O)cc2)o1` reads -0.0519%; that for `CCCCn1c(N)c(N(CC)C(=O)C2=NN(c3ccccc3)C(=O)CC2)c(=O)[nH]c1=O`, 8.33%.
Turning to `CC(C)(C)C1CCC(=NNC(=O)c2ccccc2-n2cccc2)CC1` (stereo not drawn), the “hERG current change (%, negative = inhibition) at 10uM” value is 9.9%.
The result for `COc1ccccc1C(c1nnnn1C1CCCC1)N1CCN2CCCC2C1` (stereo not drawn) reads -5.64%; that for `COCC(=O)Nc1nnc(Cc2ccc(OC)cc2)s1`, 4.46%; that for `CC1CN(c2nc(Nc3ccccc3F)nc(N)c2[N+](=O)[O-])CC(C)O1` (stereo not drawn), -36.7%.
The figure for `COC(=O)[C@H](CCSC)NC(=O)[C@@H](Cc1cnc[nH]1)NC(=O)OCc1ccccc1` (Cbz-[dH]-Met-OMe) is 16.6%; for `CC(C)C(c1nnnn1C1CCCCC1)N1CCc2ccccc2C1` (stereo not drawn) it is 2.91%.
Regarding `O=C(NNS(=O)(=O)c1ccc(F)cc1)c1ccccc1`, the “hERG current change (%, negative = inhibition) at 10uM” value is listed as 18.8%.
For `Cn1cccc1-c1nc2ccccc2n1C`, the “hERG current change (%, negative = inhibition) at 10uM” value is reported as -1.23%.
The figure for `CCN(CC)c1nc(-c2ccccc2)ncc1S(=O)(=O)c1ccc(C)cc1` is 46.9%; for `CCOC(=O)N1CCC(N(CCN(C)C)C(=S)Nc2ccccc2OC)CC1` it is -16.2%.
The figure for `CN(c1ccccc1)S(=O)(=O)c1cccc(NC(=O)Cn2cnc3ccccc3c2=O)c1` is -48.3%.
The figure for `Cc1ccc(S(=O)(=O)N(Cc2ccc(F)cc2)Cc2ccco2)cc1` is 2.28%.
With `COc1ccc(CNC(=O)CN(Cc2ccccc2)C(=O)c2csnn2)cc1`, the “hERG current change (%, negative = inhibition) at 10uM” value is -32.3%.
The result for `CC(OC(=O)c1cc2c(ccc3ccccc32)oc1=O)c1nc2ccccc2s1` (stereo not drawn) reads 6.74%; that for `O=C(Nc1cccc2nsnc12)c1cccs1`, 17.5%; that for `O=C(Cc1ccccc1)Nc1ccccc1C(=O)NCC1CCCO1` (stereo not drawn), 5.27%.
The figure for `Cl.O=C(O)CNCC1COc2ccccc2O1` (stereo not drawn) is -6.35%; for `CCOC(=O)C1CCCN(c2ncnc3c2oc2ccccc23)C1.Cl` (stereo not drawn) it is -43%.
The figure for `Cc1ccc(NC(=O)c2ccco2)c(NC(=O)C2CCCO2)c1` (stereo not drawn) is 9.38%; for `O=c1c(Cc2ccccc2)c(O)ccn1Cc1ccc2c(c1)OCO2` it is 18.9%.
Take `COc1ccc2[nH]c(=O)c(CN(Cc3cccs3)S(=O)(=O)c3c(C)ccc4nsnc34)cc2c1`: the “hERG current change (%, negative = inhibition) at 10uM” value is reported as -11.3%.
The figure for `CCNC(=O)NC(=O)C(C)OC(=O)c1cccnc1SC` (stereo not drawn) is -22.1%; for `COc1ccc(C(=O)Nc2ccccc2C(=O)O)cc1Cl` it is 5.33%; for `CN1/C(=C/C=C(C#N)C#N)C(C)(C)c2ccccc21` it is 14.7%.
The figure for `O=C(CCCOc1ccccc1)Nc1cccc(S(=O)(=O)N2CCCCC2)c1` is -21.5%; for `CCN(CCCNC(=O)C1CCN(S(=O)(=O)N2CCOCC2)CC1)c1cccc(C)c1` it is -8.96%.
For the compound `Nc1nnc(SCC(=O)c2ccccc2)s1`, the “hERG current change (%, negative = inhibition) at 10uM” value was found to be 11.4%.
The figure for `CC[C@@]12C(=O)N(c3cccc(C)c3)C(=O)N1[C@H](c1ccc(Br)cc1)[C@@H]1C(=O)N(C(C)(C)C)C(=O)[C@@H]12` is -2.53%.
As to `O=C(N1CCCCC1)N1CCCN(C(=O)N2CCCCC2)CC1`, the “hERG current change (%, negative = inhibition) at 10uM” value was found to be 11.5%.
The result for `CCN(C(=O)c1ccccc1Cl)c1ccccc1` reads 13.9%.
The result for `CCc1nc2sc3c(c2c(=O)n1NC(=O)CCl)CCCC3` reads -5.54%; that for `CN(Cc1nc(-c2ccncc2)no1)S(=O)(=O)c1ccc(Br)cc1`, -58.1%.
The figure for `Cc1cccc(-n2c(SC(C)C(=O)O)nc3sc4c(c3c2=O)CCCC4)c1` (stereo not drawn) is 26.2%; for `Cc1ccc(-n2nnnc2C(=Cc2ccc(N(C)C)cc2)c2nnnn2-c2ccc(C)cc2)cc1` it is 6.65%.
Regarding `CSc1ccc(S(=O)(=O)NC2CC2)cc1`, the “hERG current change (%, negative = inhibition) at 10uM” value was found to be 9%.
The result for `O=C(O)C(=O)O.O=C(c1cccc(F)c1)N1CCN(CC2CC3C=CC2C3)CC1` (stereo not drawn) reads -2.22%; that for `COc1cc(OC)c(C(=O)Oc2ccc3c(c2)OCO3)cc1OC`, 6.46%; that for `CCCOc1ccc(C(O)CCNC(CC(=O)O)c2ccccc2)cc1` (stereo not drawn), 23.4%.
`CCOC(=O)C1(C(F)(F)F)N=C(C(F)(F)F)Nc2ccccc21` (stereo not drawn): the “hERG current change (%, negative = inhibition) at 10uM” value was -2.27%.
`O=c1[nH]cnc2c1ncn2Cc1ccc([N+](=O)[O-])cc1`: the “hERG current change (%, negative = inhibition) at 10uM” value turned out to be 33.3%.
The figure for `COn1c(SCc2ccc(Cl)cc2)nc2ccccc2c1=O` is -7.27%; for `CCOC(=O)c1sc2nc3c(SCCC#N)cc(C(=O)c4cc(F)ccc4O)cn3c(=O)c2c1C` it is -10.1%; for `O=c1cccc2n1CC1CC2CN(c2nc(N3CCCCC3)nc(N3CCCCC3)n2)C1` (stereo not drawn) it is -13%.
Take `Cc1ccc(/C=C/C(=O)NCCCN2CCN(CCCNC(=O)/C=C/c3ccc(C)o3)CC2)o1`: the “hERG current change (%, negative = inhibition) at 10uM” value was -78.3%.
The result for `Cc1c(-n2c(SCC(=O)NC(C)C(C)C)nc3ccccc3c2=O)c(=O)n(-c2ccccc2)n1C` (stereo not drawn) reads 15%; that for `COc1ccccc1N1CCN(C2CCCN(S(=O)(=O)c3ccccc3)C2)CC1` (stereo not drawn), -29.5%.
The figure for `CC(OC(=O)Cc1coc2ccc3ccccc3c12)C(=O)Nc1ncc(Cl)cc1Cl` (stereo not drawn) is -7.41%; for `CCOC(=O)N1CCN(C(=O)CN(C)S(=O)(=O)c2ccc(OCC)cc2)CC1` it is -6.98%.
The figure for `Cc1ccc(C)c(NC(=O)C2CC3c4ccccc4C2c2ccccc23)c1` (stereo not drawn) is 12.2%; for `COC(=O)c1c(N2C(=O)Nc3ccccc3N2O)sc(C)c1C` it is 23.2%; for `COC(=O)COc1ccc(C2NC(=O)NC(c3ccccc3)=C2C(C)=O)cc1OC` (stereo not drawn) it is 12%.
